PubChem BioAssay AID624296 (National Center for Advancing Translational Sciences (NCATS), 2012)
Hit rate of the full screen: of about 350,000 compounds, about 9,900 (2.8%) were called active. The shares of active, inactive and inconclusive entries below differ from those in the screen. Calls follow the shape of the dose curve; as a rule, active = well fitted activation curve with a large enough effect; inconclusive = small, poorly fitted or top-dose-only effect; inactive = no such curve, though single readings can be large or run the other way. Potencies of inconclusive entries are left out as doubtful fits.

Experiment: A quantitative high throughput screen for small molecules that induce DNA re-replication in MCF 10a normal breast cells. Also: nearly all actives have a fitted effect of over 50% in size. As to activity, positive = re-replication: % of control where 0% means no effect.
Settings: MCF 10A DNA re-replication, Hoechst nuclear intensity, 48 h; activity, positive = re-replication: at 46.1 µM (top of the series)
Potency is read from the fitted curve at half-maximal effect; tags tell the direction and shape of the fitted curve.

Row | Structure (SMILES) | activity, positive = re-replication | Potency
1 | COCc1cc(C)nc(Sc2nc3c(c(=O)n(C)c(=O)n3C)n2C)c1C#N | inactive: 2.36% | 
2 | CCOc1cc(NC(=O)c2ccco2)c(OCC)cc1NC(=O)CCc1ccccc1OC |  | inconclusive [activator, single point]
3 | CCOC(=O)c1c(NC(C)=O)sc2c1CCC(C=NCCCN(CC)CC)=C2Sc1ccccc1 |  | inconclusive [activator, partial curve, poor fit]
4 | Cc1nc2c(ccc3nc(NC(=O)C4CC4)sc32)s1 | inactive: 11% | 
5 | CC(C)(C)OC(=O)N(CCc1ccccc1)Cc1ccc(OCc2cccc(NC(=O)c3ccccc3)c2)cc1 | inactive: -5.47% | 
6 | Cc1nc2c(sc(=S)n2Cc2ccco2)c(=O)n1CC(=O)Nc1cc(F)ccc1F |  | active: 23.1 µM
7 | COc1ccc(CC(=O)N/N=C(\C)c2ccccn2)cc1 |  | inconclusive [activator, partial curve, poor fit]
8 | Cc1ccc(S(=O)(=O)NC(Cc2ccccc2)C(=O)NN)cc1 (configuration not stated) | inactive: 1.51% | 
9 | C[C@H](NC(=O)[C@H]1N2C(=O)c3ccccc3C2SC1(C)C)C(=O)N1CCC[C@H]1C(=O)O (some centres not stated) |  | inconclusive [activator, full curve, poor fit]
10 | O=C(CSc1nc2ccccc2c(=O)n1Cc1ccc(F)cc1)NCc1cccs1 |  | inconclusive [activator, single point]
11 | O=C(N/C(=C/c1cccc(Br)c1)c1nc(=S)[nH][nH]1)c1ccccc1 |  | inconclusive [activator, single point]
12 | COc1ccccc1C(CNC(=O)c1cc(C)nc2ccccc12)N(C)C (configuration not stated) | inactive: -1.19% | 
13 | O=C(Oc1ccccc1)N1CCN(c2ccccc2F)CC1 |  | inconclusive [activator, single point]
14 | O=C(CCN1CCN(c2ccccc2F)CC1)c1ccc(Br)cc1 |  | inconclusive [activator, single point]
15 | Cc1ccc(NC(=O)CSc2n[nH]c(-c3ccccn3)n2)cc1 |  | inconclusive [activator, partial curve, poor fit]
16 | O=C(CCC(=O)c1cccs1)NCc1ccccc1Cl | inactive: 0.792% | 
17 | CN(CC(=O)NC(=O)NCc1ccccc1)CC(=O)Nc1ccc(Cl)c(Cl)c1 |  | inconclusive [activator, single point]
18 | COc1cc(OC)cc(C(=O)Nc2ccc(C(=O)NCC3CCCO3)cc2)c1 (configuration not stated) |  | inconclusive [activator, single point]
19 | Cc1cccc(NC(=O)Cn2c(O)c(N=NC(=O)c3ccccc3O)c3ccccc32)c1 |  | inconclusive [activator, partial curve, poor fit]
20 | Cc1cccc(N2CCN(CCCNC(=O)c3ccc(NC(=O)C4=CSCCO4)cc3)CC2C)c1 (configuration not stated) |  | inconclusive [activator, single point]
21 | Cc1ccc2c(c1)c(C)c(C)n2CC(O)Cn1nc(C)c(Br)c1C (configuration not stated) |  | inconclusive [activator, single point]

Row | Structure (SMILES) | activity, positive = re-replication | Potency
22 | Cc1sc(NC(=O)c2ccco2)c(CN2CCC(C)CC2)c1C |  | inconclusive [activator, partial curve, poor fit]
23 | CN1CC[C@@]2([C@@]34CCN(C)C3Nc3ccccc34)c3ccccc3NC12 (some centres not stated) |  | inconclusive [activator, full curve, poor fit]
24 | O=[N+]([O-])c1ccc(S(=O)(=O)Nc2nnc(C(F)(F)F)s2)cc1 |  | inconclusive [activator, partial curve, poor fit]
25 | O=[N+]([O-])c1ccc2c(c1)N([O-])C1(CCCCC1)[N+]2=O |  | inconclusive [activator, single point]
26 | COc1ccc2oc(C(=O)N3CCN(C(c4ccccc4)c4ccccc4)CC3)c(C)c2c1 |  | inconclusive [activator, full curve, poor fit]
27 | CCOC(=O)c1c(-c2ccc(Cl)cc2)csc1NC(=O)CNCc1ccco1 |  | inconclusive [activator, partial curve]
28 | COCCCNC(=O)CC1C[C@H](C(=O)N2CCOCC2)[C@@]2(C)c3[nH]c4ccc(OC)cc4c3CCN2C1=O (some centres not stated) | inactive: -4.03% | 
29 | Nc1c(C(=O)c2ccc(Cl)cc2)oc2ccccc12 |  | inconclusive [activator, partial curve, poor fit]
30 | COc1cccc(CN2CCN(C(=O)c3ccc(-c4ccccc4)cc3)CC2)c1OC | inactive: 5.27% | 
31 | Nc1ccc2nc(-c3ccccc3)sc2c1 |  | active: 25.9 µM
32 | CCc1nnc(NC(=O)CSc2nc3cc(OC)c(OC)cc3cc2C)s1 |  | inconclusive [activator, single point]
33 | CSc1cccc(NS(=O)(=O)c2ccc3c(c2)CCN3C(C)=O)c1 |  | inconclusive [activator, single point]
34 | Cc1ccc(CN2C(=O)c3ccccc3Sc3ccc(C(=O)NCCN4CCOCC4)cc32)cc1 |  | inconclusive [activator, full curve]
35 | Cc1ccc(-c2cc3ccccc3nc2N2CCCC2)cc1 |  | inconclusive [activator, single point]
36 | CC(C)Oc1ccc(CNC(=O)CCCN2C(=O)C(c3ccccc3)Oc3cccnc32)cc1 (configuration not stated) | inactive: 0.827% | 
37 | CC(Sc1n[nH]c(=O)n1Cc1ccccc1)C(=O)NCC1CCCO1 (configuration not stated) | inactive: 0.228% | 
38 | NS(=O)(=O)c1cccc(NC(=O)CSc2nc3nc(-c4cccs4)cc(C(F)(F)F)c3c(=O)[nH]2)c1 |  | inconclusive [activator, single point]
39 | CN(C(=O)c1ccc(NC(=O)C2CCCN(C(=O)OC(C)(C)C)C2)cc1)C1CCCC1 (configuration not stated) | inactive: 1.62% | 
40 | O=C(CN1CCSC1=NCc1ccccc1)c1ccc(Cl)cc1 | inactive: -2.61% | 
41 | CCC1=[N+](CC(=O)c2ccc(C)cc2)CCn2cccc21 |  | inconclusive [activator, single point]
42 | O=C(NCCNc1ccc([N+](=O)[O-])cc1)c1ccc(Cl)cc1 |  | inconclusive [activator, partial curve, poor fit]
